Experimental data reported in ChEMBL document CHEMBL4888484, “Replenishing the malaria drug discovery pipeline: Screening and hit evaluation of the MMV Hit Generation Library 1 (HGL1) against asexual blood stage Plasmodium falciparum ,using a nano luciferase reporter read-out” (2022).
Hit rate of the full screen: of about 150,000 compounds, about 540 (0.36%) showed an effect of 50% or more. Some of the results follow.

What follows are compounds tested on Plasmodium falciparum (assay: Primary screen in NF54 nanoGlo assay, in single point, at 2uM, 72h; a lower Z score goes with more inhibition). Conditions: timepoint 72 hour.
Assay type: functional, Erythrocyte

Compound	% Inhibition	Z score
Cc1ccccc1CNC(=O)Cc1nnc2c(-c3nc(C(C)(C)C)no3)cccn12	-5%	0.82
CC(=O)Nc1ccc(CCc2nc3cc(C(=O)N4CCN(c5cccc(C)c5)[C@@H](C)C4)ccc3[nH]2)cc1	7%	-0.86
O=C(CC1=CCCCC1)NC[C@H](O)c1ccccc1F	-1%	0.1
O=C(CNc1ncc(C(F)(F)F)s1)NCC1CC1	-1%	0.16
c1ccc2c(c1)CCC[C@@H]2Nc1ncnc2nc[nH]c12	-8%	1.11
O=C(c1c[nH]c(=O)c(Cl)c1)N1CCC2(CC1)c1ccccc1C[C@@H]2O	0%	0.01
COc1cccc(CNC(=O)CN2CCC[C@H](c3nnc4ccccn34)C2)c1	-4%	0.46
CN(C)c1noc(CN2CCc3ccc(F)cc3C2)n1	51%	-2.97
CCC1(C)CC(=O)N(CC(=O)Nc2ccc(F)cc2)C(=O)C1	1%	-0.12
Cc1nnsc1C(=O)Nc1ccccc1Cc1ccccc1	-7%	0.86
COC[C@@]1(CO)CCN(C(=O)OC(C)(C)C)C1	-7%	0.93
Cc1cc(C)nc(CN[C@@H](C)CN2CCCCCC2)n1	-14%	2.33
O=C(NCc1cocn1)c1c[nH]c(C(F)(F)F)c1	-12%	2.13
COCCN(Cc1ccc(C)o1)C[C@H](O)C(C)C	-10%	1.19
COc1cccc(NC(=O)N2CCC(C)CC2)n1	0%	0
Cc1nn(C)c2nc(C=Cc3cnc(N(C)C)n3C)cc(C(=O)O)c12	-42%	4.93
CS(=O)(=O)c1ccc(-c2ccc(-n3cccn3)cc2)cc1	0%	-0.04
Cc1cc(C)cc(CN2CCN(C(=O)c3c(C)n[nH]c3C3CC3)CC2=O)c1	-7%	0.87
CC1CCC(N(C)C(=O)[C@H]2CC2(Cl)Cl)CC1 (stereo partly drawn)	-4%	0.55
Cc1cc(C)c(NC(=O)CN2C(=O)CC(c3cccs3)=Nc3cc(C)c(C)cc32)c(C)c1	-7%	1.25
COC(=O)[C@H]1CC[C@H](C(=O)Nc2c(Cl)ccc(F)c2C)CC1	-11%	0.95
Cc1nc(C)c(C)c(Nc2ccc3c(c2)CC(=O)N3)n1	1%	-0.18
CCOCCCNC(=O)N1CCOCC1	-7%	1.41
CC[C@H]1CN(CCC(=O)O)Cc2cc(OC)ccc2O1	9%	-1.22
CCCn1cc2c3c(cccc31)CN(C(=O)NCCCOC)CC2	-6%	0.55
CS(=O)(=O)c1ccc(-c2nc([C@H]3CCOC3)no2)cc1	-12%	1.62
CCn1c(=O)n(Cc2cc(-c3ccccc3)on2)c2ccccc21	-4%	0.72

Compound	% Inhibition	Z score
Cc1ccc(Nc2nnnc3c2cnn3-c2ccccc2)c(C)c1	-5%	0.74
CC[C@H]1Cn2c(C(=O)NC3CCCCC3)cc3c(Cl)ccc(c32)O1	31%	-4.44
Cc1ccc(CNc2cc(C(=O)N3CCc4ccccc4C3)cc(S(=O)(=O)N(C)C)c2)cc1	-5%	1.01
CCC(=O)[C@@H]1CCCCN1C(=O)OC(C)(C)C	-8%	0.78
CN(Cc1ccccc1)C(=O)c1cnc(COc2ccc(F)cc2)nc1O	-21%	2.45
C[C@H](Nc1ccc2c(c1)CCC(=O)N2)c1ncc(-c2ccccc2)o1	-3%	0.35
COC(=O)C1C(O)CCCN1C(=O)CC1CC2CCC1C2 (stereo not drawn)	-3%	0.29
COc1ccc(NC(=O)CN(Cc2nc(-c3ccccc3)cs2)C(=O)Cn2nnc3ccccc32)c(OC)c1	-12%	1.37
Cc1c(S(=O)(=O)N2CCCC2)c(C)n(C)c1C(=O)N1CCc2ccccc21	-1%	0.13
O=C(N[C@@H]1[C@@H]2CCO[C@@H]2[C@@H]1C1CCCC1)c1cc(Cl)c[nH]c1=O	0%	-0.05
CCOc1cc(C(=O)N(C)C[C@@H]2OCCc3ccccc32)on1	-10%	1.89
Cc1cc(Br)cc(C)c1OCC(=O)Nc1ccc(C2(c3ccc(NC(=O)COc4c(C)cc(Br)cc4C)cc3)c3ccccc3-c3ccccc32)cc1	-9%	1.11
O=C(c1cn(CC(=O)N2CCOCC2)c2ccccc12)C1CC1	-10%	1.87
CC(=O)N[C@@H]1CCNC[C@@H]1c1nc(-c2ccccc2)no1	-12%	1.38
O=C(NC(=O)c1ccc(Cl)cc1Cl)OC[C@@H]1CCCN2CCCCC12 (stereo partly drawn)	3%	-0.46
CN(c1ncccc1Cl)[C@H]1CCN(CC(F)(F)F)C1=O	-13%	1.57
Cn1ccc(-c2noc([C@@H](CN)C3CCCCCC3)n2)cc1=O	-5%	1.05
CC(C)c1ccc(NC(=O)CCNC(=O)N2CC(=O)Nc3ccccc32)cc1	27%	-3.06
Cn1ncc2c(NC[C@H](O)c3cc(Cl)c4c(c3)OCCO4)ccnc21	-6%	1.08
CN(CCO)C[C@@H]1CN(C(=O)C2(c3ccccc3)CCCC2)C[C@@H]1CO	-27%	2.7
Cc1cccc(Cn2cc(N3C(=O)C4CCCCC4C3=O)cn2)c1 (stereo not drawn)	16%	-1.94
CCOC(=O)[C@@]1(C(C)C)CCN(Cc2c(C)nn(C)c2C)C1	4%	-0.55
CN1C2CCCC1CC(Nc1nc(C3CC3)ns1)C2 (stereo not drawn)	6%	-0.7
COCc1c(C(=O)N2CCC3(CC2)C[C@@H]3NC(=O)c2ccncc2)noc1C	-10%	1.27
Cc1noc(C)c1-c1noc(C=C2CC[C@H](C)C2)n1	-6%	0.85
CC(C)N(C)CC(=O)N[C@@H]1CCCC[C@H]1O	-8%	1.42
O=C1CN(C(=O)c2cc(-c3cccc(Cl)c3)[nH]n2)CCN1	-12%	1.12
